Out of some 310,000 compounds screened, about 14,000 (4.5%) showed an effect of 50% or more. Effects have a minus sign here. The list shows a part of the results.
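Further: peak tail current of the secondary pulse compared with the same well before compound.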

The target in the test is human ether-à-go-go-related gene (hERG) potassium channel (human, UniProt Q12809). The test is described as follows: primary screen, population patch clamp on CHO cells stably expressing hERG.
Sequence of human ether-à-go-go-related gene (hERG) potassium channel (Q12809 whole entry, looked up): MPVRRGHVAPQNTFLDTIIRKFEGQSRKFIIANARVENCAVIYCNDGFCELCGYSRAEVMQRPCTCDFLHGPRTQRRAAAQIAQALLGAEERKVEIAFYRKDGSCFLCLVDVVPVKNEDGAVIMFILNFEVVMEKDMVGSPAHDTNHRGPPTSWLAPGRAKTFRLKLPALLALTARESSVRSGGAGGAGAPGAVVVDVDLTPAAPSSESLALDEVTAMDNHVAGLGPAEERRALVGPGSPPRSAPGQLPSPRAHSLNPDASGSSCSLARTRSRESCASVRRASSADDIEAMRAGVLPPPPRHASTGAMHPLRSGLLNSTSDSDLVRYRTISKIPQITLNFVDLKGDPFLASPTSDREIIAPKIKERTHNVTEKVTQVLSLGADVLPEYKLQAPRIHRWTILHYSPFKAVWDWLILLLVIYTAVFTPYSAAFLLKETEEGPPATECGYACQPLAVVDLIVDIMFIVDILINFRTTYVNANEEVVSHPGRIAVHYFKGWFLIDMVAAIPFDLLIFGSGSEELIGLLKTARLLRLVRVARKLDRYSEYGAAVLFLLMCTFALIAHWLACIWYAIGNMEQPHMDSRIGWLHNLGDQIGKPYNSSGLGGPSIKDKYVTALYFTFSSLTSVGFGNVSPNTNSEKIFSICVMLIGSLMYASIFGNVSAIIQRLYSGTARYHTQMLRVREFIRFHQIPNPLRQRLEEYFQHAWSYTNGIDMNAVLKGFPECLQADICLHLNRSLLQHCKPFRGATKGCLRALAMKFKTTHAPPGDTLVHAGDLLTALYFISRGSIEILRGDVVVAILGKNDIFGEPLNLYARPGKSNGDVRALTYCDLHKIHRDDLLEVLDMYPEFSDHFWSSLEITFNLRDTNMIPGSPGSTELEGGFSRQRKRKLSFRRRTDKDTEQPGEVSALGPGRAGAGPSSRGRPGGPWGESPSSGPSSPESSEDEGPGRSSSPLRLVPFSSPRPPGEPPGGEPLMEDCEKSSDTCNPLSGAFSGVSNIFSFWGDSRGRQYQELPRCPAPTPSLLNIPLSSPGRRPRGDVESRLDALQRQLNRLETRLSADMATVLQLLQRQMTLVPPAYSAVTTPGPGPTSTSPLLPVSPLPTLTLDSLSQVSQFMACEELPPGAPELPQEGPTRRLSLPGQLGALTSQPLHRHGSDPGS
On to `CN(C)CCNC(=O)c1coc(=O)c(Br)c1`, for which the “hERG current change (%, negative = inhibition) at 10uM” value worked out at 10.6%.

On to `NC(=O)c1ccccc1NC(=S)NC(=O)CCc1ccccc1`, for which the “hERG current change (%, negative = inhibition) at 10uM” value is 11.4%.

As to `CCN1CCN(CCCN(Cc2ccco2)C(=S)Nc2cccc(Cl)c2C)CC1`, the “hERG current change (%, negative = inhibition) at 10uM” value is given as -61.2%.

With `CCCCOC(=O)CSc1nnc(-c2ccc(Cl)cc2Cl)o1`, the “hERG current change (%, negative = inhibition) at 10uM” value is on record as 3.67%.

Consider `CC(c1nc2ccccc2c(=O)[nH]1)N1CCCN(S(=O)(=O)c2ccc(F)cc2)CC1` (stereo not shown), for which the “hERG current change (%, negative = inhibition) at 10uM” value was -59.1%.

For `Cc1ccccc1CS(=O)(=O)Cc1ccc(C(=O)NCCCN2CCCC2=O)o1`, the “hERG current change (%, negative = inhibition) at 10uM” value worked out at 5.87%.

Regarding `CCOC(=O)c1c(NC(=O)Cn2ccsc2=N)sc(C)c1C.Cl`, the “hERG current change (%, negative = inhibition) at 10uM” value is reported as -10.9%.

Regarding `Cc1ccc(-c2nnnn2CS(=O)(=O)c2ccccc2)cc1`, the “hERG current change (%, negative = inhibition) at 10uM” value was -1.7%.

As for `Cc1cccn2c(=O)c3cc(C(=O)NCCN4CCOCC4)c(=N)n(CCN4CCOCC4)c3nc12`, the “hERG current change (%, negative = inhibition) at 10uM” value amounted to 18.5%.

With `CCCCNC(=O)N(CC)c1c(N)n(Cc2ccccc2)c(=O)[nH]c1=O`, the “hERG current change (%, negative = inhibition) at 10uM” value stood at 18.1%.

Take `O=C1CC(c2cccc(Cl)c2)CC(O)=C1C=Nc1cccc(Cl)c1` (stereo not shown): the “hERG current change (%, negative = inhibition) at 10uM” value was -0.437%.

For the compound `O=C1c2cccc3cccc(c23)C(=O)N1c1cccnc1`, the “hERG current change (%, negative = inhibition) at 10uM” value came out at 10.9%.

On to `CC(C)C[C@H](NC(=O)NC1CCCc2ccccc21)C(=O)O` (stereo partly shown), for which the “hERG current change (%, negative = inhibition) at 10uM” value was determined as 16.2%.

For the compound `CCN(CC)CCCN1C(=O)C(=O)/C(=C(/O)c2cc(C)ccc2C)C1c1cccnc1` (stereo not shown), the “hERG current change (%, negative = inhibition) at 10uM” value stood at 2.4%.

`Cc1ccc(S(=O)(=O)NCCC(=O)OCc2ccc([N+](=O)[O-])cc2)cc1C`: the “hERG current change (%, negative = inhibition) at 10uM” value was -42.3%.

In the case of `Cc1ccc(C(C)C)c(OCCCCN2CCNCC2)c1.O=C(O)C(=O)O`, the “hERG current change (%, negative = inhibition) at 10uM” value is -6.77%.

As to `CC(C)CC1NC(=O)N(CC(=O)N2CCN(S(=O)(=O)c3ccccc3)CC2)C1=O` (stereo not shown), the “hERG current change (%, negative = inhibition) at 10uM” value is given as 0.15%.

For the compound `CCC(=O)c1ccccc1OCCCn1cncn1`, the “hERG current change (%, negative = inhibition) at 10uM” value is reported as -4.3%.

`CC(C)(C)OC(=O)N[C@@H](Cc1ccccc1)C(=O)N1CCC(C(=O)NCC(=O)O)CC1`: the “hERG current change (%, negative = inhibition) at 10uM” value was determined as 3.7%.

Take `CCOc1ccc(NC(=O)COc2ccc(C(=O)N3CCC(C(N)=O)CC3)cc2OC)cc1`: the “hERG current change (%, negative = inhibition) at 10uM” value is reported as 9.91%.

Regarding `COc1ccccc1S(=O)(=O)Nc1ccc2cn[nH]c2c1`, the “hERG current change (%, negative = inhibition) at 10uM” value is recorded as 11.3%.

As for `c1ccc(C2=NOC(c3nnc(-c4ccccc4)o3)C2)cc1` (stereo not shown), the “hERG current change (%, negative = inhibition) at 10uM” value is recorded as -33.1%.

In the case of `OC1CCCN(c2c3c(nc4cc(-c5cccc(Cl)c5)nn24)CCC3)C1` (stereo not shown), the “hERG current change (%, negative = inhibition) at 10uM” value was -29.5%.

As for `S=C1NC2(CCCCCC2)N=C1c1ccccc1`, the “hERG current change (%, negative = inhibition) at 10uM” value was 9.23%.

As for `O=C(/C=C/c1ccco1)N/C(=C\c1ccccc1)C(=O)NCCc1nc2ccccc2[nH]1`, the “hERG current change (%, negative = inhibition) at 10uM” value was -46.3%.

As to `Cc1cc(C)c2c(=O)[nH]c(SCc3ccc([N+](=O)[O-])cc3)nc2n1`, the “hERG current change (%, negative = inhibition) at 10uM” value is given as -33.3%.

As for `CC(=O)Nc1ccc(S(=O)(=O)N(C)CC(=O)OC(C)C(=O)N(C)C2CCCCC2)cc1` (stereo not shown), the “hERG current change (%, negative = inhibition) at 10uM” value amounted to 8.67%.

In the case of `CC(=O)c1c(C)nn(CCC(=O)O)c1C`, the “hERG current change (%, negative = inhibition) at 10uM” value turned out to be 8.63%.

In the case of `Cc1ccc(-n2ncc3c(NNC(=O)c4ccco4)ncnc32)c(C)c1`, the “hERG current change (%, negative = inhibition) at 10uM” value stood at 38.1%.

With `CCOC(=O)C1CCCN(C(=O)c2ccccc2NC(=O)C2=C(C)OCCS2)C1` (stereo not shown), the “hERG current change (%, negative = inhibition) at 10uM” value stood at 20.7%.

For `CC(C)(C)C(=O)N1CCN(C(c2ccccc2)c2ccccc2)CC1`, the “hERG current change (%, negative = inhibition) at 10uM” value is listed as -2.12%.

Consider `Cc1cc(C)n(CC(O)COc2ccccc2C(=O)Nc2ccccc2)n1` (stereo not shown), for which the “hERG current change (%, negative = inhibition) at 10uM” value was -26.1%.

Regarding `O=C(C1CCCN(C2CC(=O)N(c3ccc(F)cc3)C2=O)C1)N1CCCC1` (stereo not shown), the “hERG current change (%, negative = inhibition) at 10uM” value is listed as 29.4%.

On to `Cl.O=[N+]([O-])c1cc(S(=O)(=O)CCCN2CCOCC2)ccc1F`, for which the “hERG current change (%, negative = inhibition) at 10uM” value is recorded as 14.9%.

Consider `CCOC(=O)c1ccc(NC(=S)N2CCN(S(C)(=O)=O)CC2)cc1`, for which the “hERG current change (%, negative = inhibition) at 10uM” value is -0.876%.

For `COCCn1c(SCC(=O)Nc2cccc(OC)c2)nc2c(oc3ccccc32)c1=O`, the “hERG current change (%, negative = inhibition) at 10uM” value was -42.2%.

As for `O=C(Nc1nn(Cc2ccccc2F)cc1Br)c1cccs1`, the “hERG current change (%, negative = inhibition) at 10uM” value was -5.22%.

Turning to `CC(C)(CC(=O)O)CC(=O)Nc1ccccc1Oc1ccccc1`, the “hERG current change (%, negative = inhibition) at 10uM” value is -8.54%.

Take `Cc1c(C(=O)N(Cc2cccc(Br)c2)C2CCS(=O)(=O)C2)oc2ccccc12` (stereo not shown): the “hERG current change (%, negative = inhibition) at 10uM” value came to 5.56%.

In the case of `CCC(CC)C(=O)Nc1cc([N+](=O)[O-])ccc1F`, the “hERG current change (%, negative = inhibition) at 10uM” value is listed as -2.25%.

With `O=C(CC1(C(=O)O)CCCC1)N1CCOCC1`, the “hERG current change (%, negative = inhibition) at 10uM” value is on record as 0.116%.

Consider `Cc1cc(C(=O)CSCCCn2c(=O)[nH]c3ccccc32)c(C)n1C`, for which the “hERG current change (%, negative = inhibition) at 10uM” value came to 7.93%.

As for `Cc1cccc(C(=O)NNC(=O)c2ccc(NC(=O)C(C)(C)C)cc2)c1`, the “hERG current change (%, negative = inhibition) at 10uM” value was 30%.

In the case of `Cc1cc(/C=N/n2cnnc2)c(C)n1-c1ccc(OCc2ccc(F)cc2)cc1`, the “hERG current change (%, negative = inhibition) at 10uM” value is reported as 6.48%.

As to `Cc1ccc(NS(=O)(=O)c2ccc(Cl)c(NC(=S)NC(=O)C3CCCCC3)c2)cc1Cl`, the “hERG current change (%, negative = inhibition) at 10uM” value was 6.62%.

For `CC(C)c1nc2c(c(=O)c3ccccc3n2C)c(=O)n1CCc1ccccc1`, the “hERG current change (%, negative = inhibition) at 10uM” value was -15.8%.

Take `Cc1ccc(S(=O)(=O)CCC(=O)OCc2ccc(Cl)c(Cl)c2)cc1`: the “hERG current change (%, negative = inhibition) at 10uM” value was -0.173%.

As for `COc1ccc(N(C(C)C(=O)Nc2ccc(S(=O)(=O)N3CCOCC3)cc2)S(C)(=O)=O)cc1` (stereo not shown), the “hERG current change (%, negative = inhibition) at 10uM” value was 9.23%.

For `CCOc1ncccc1C(=O)OCC(=O)c1ccccc1`, the “hERG current change (%, negative = inhibition) at 10uM” value is 29.5%.

As for `CC(C)NC(=O)NC(=O)CSc1ncccn1`, the “hERG current change (%, negative = inhibition) at 10uM” value amounted to 15.7%.

For the compound `COc1ccccc1N(CC(=O)NCCSCc1cccc(Cl)c1)S(C)(=O)=O`, the “hERG current change (%, negative = inhibition) at 10uM” value is recorded as -19.9%.

As to `COc1ccc(C(=O)c2c(C)oc3cc([N+](=O)[O-])c(O)c([N+](=O)[O-])c23)cc1`, the “hERG current change (%, negative = inhibition) at 10uM” value was 2.71%.

In the case of `CCOC(=O)C1CCN(C(=O)c2ccc(NS(=O)(=O)c3ccc(F)cc3C)cc2)CC1`, the “hERG current change (%, negative = inhibition) at 10uM” value is -30.7%.

On to `COc1ccc(CN2CC=C(c3ccc(F)cc3)CC2)cc1Br`, for which the “hERG current change (%, negative = inhibition) at 10uM” value was -11.7%.

For the compound `Cc1ccc(NC(=O)Cn2c(/C=C/c3ccccc3)nc3ccccc32)cc1C`, the “hERG current change (%, negative = inhibition) at 10uM” value is given as -0.723%.

The values above are taken from paper PMC4336329 (PLoS ONE, 2015).
